In paper PMC4336329 (PLoS ONE, 2015):
Out of some 310,000 compounds screened, about 2,200 (0.71%) showed an effect of 50% or more. The effect is printed as a negative number. The list shows a part of the results.

The compounds below were run against human ether-à-go-go-related gene (hERG) potassium channel (human, UniProt Q12809) (assay: primary screen, population patch clamp on CHO cells stably expressing hERG).
human ether-à-go-go-related gene (hERG) potassium channel, sequence (Q12809 whole entry, looked up): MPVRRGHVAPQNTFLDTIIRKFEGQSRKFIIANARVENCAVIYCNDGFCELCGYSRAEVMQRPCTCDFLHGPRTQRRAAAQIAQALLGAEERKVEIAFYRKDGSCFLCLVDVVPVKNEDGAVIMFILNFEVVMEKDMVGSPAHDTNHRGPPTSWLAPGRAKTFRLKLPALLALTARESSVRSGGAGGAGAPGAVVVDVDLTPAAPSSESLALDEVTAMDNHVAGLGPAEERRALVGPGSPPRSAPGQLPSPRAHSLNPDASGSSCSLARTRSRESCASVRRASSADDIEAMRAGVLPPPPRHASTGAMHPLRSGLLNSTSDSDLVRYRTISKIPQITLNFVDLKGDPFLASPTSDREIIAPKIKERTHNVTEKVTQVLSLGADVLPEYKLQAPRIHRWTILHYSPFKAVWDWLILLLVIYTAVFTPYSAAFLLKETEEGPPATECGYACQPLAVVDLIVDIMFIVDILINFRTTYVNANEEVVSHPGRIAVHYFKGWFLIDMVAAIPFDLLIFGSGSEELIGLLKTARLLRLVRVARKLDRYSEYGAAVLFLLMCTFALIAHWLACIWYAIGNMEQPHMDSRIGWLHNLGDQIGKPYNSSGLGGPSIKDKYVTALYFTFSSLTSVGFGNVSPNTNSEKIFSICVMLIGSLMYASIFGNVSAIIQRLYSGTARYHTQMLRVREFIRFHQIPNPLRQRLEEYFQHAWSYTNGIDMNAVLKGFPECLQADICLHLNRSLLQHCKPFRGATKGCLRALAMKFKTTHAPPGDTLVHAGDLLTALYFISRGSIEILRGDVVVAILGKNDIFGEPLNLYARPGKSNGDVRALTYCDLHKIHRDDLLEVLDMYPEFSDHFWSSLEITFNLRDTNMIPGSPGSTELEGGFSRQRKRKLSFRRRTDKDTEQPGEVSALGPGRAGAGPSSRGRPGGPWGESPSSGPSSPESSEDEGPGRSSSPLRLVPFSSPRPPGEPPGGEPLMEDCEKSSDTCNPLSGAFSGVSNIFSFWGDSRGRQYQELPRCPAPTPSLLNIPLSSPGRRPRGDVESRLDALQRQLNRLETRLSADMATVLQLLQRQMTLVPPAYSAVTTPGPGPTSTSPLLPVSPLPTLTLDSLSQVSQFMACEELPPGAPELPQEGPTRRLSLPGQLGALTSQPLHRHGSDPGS

In order of falling “hERG current change (%, negative = inhibition) at 1uM” value:
1. Cn1nc(-c2ccccc2)c(CO)c1Sc1ccccc1  18%
2. COc1ccc(OC)c(N(CC(=O)NCc2ccncc2)S(C)(=O)=O)c1  17.7%
3. COc1ccc(-c2[nH]ncc2CN2CCCO2)cc1F  16.3%
4. O=C1CC2CS(=O)(=O)CC2N1C1CCCCC1 (stereo not shown)  15.6%
5. Nc1cccc(C(=O)Nc2ccccc2Cl)c1  14.5%
6. CCn1c(SCC(=O)Nc2sc3c(c2C#N)CCC(C(C)(C)C)C3)nnc1-c1ccco1 (stereo not shown)  14.1%
7. COC(=O)[C@@H]1CCCN1C(=O)CCc1nnc(CCc2c[nH]c3ccccc23)o1  14.1%
8. Cc1cccc(C(=O)Nc2nccs2)c1[N+](=O)[O-]  14%
9. O=C(O)c1ccc(-c2noc(-c3cccc(F)c3)n2)cc1  12.7%
10. Cc1ccc(N/N=C/C=C/c2ccco2)cc1  12.3%
11. Cc1nnc(SCC(=O)Nc2cccc(C(F)(F)F)c2)[nH]c1=O  12.1%
12. CC(C)(C)NC[C@H](O)COc1cccc2c1CCCC2=O.Cl  11.6%
13. CN(c1cccc(NC(=O)CN(c2cccc(F)c2)S(C)(=O)=O)c1)S(C)(=O)=O  11.3%
14. COc1ccccc1C(CNC(=O)c1ccco1)N1CCCC1 (stereo not shown)  11.2%
15. COC(=O)Cn1c(=NC(=O)c2nc3ccccc3s2)sc2cc(S(N)(=O)=O)ccc21  10.8%
16. O=S1(=O)CC2SC(=S)N(c3ccccc3)C2C1 (stereo not shown)  10.7%
17. CCc1cc2cc(C(=O)Nc3ccc(C)cc3)sc2s1  10.6%
18. CCN(CC(=O)Nc1c(F)cccc1F)C(=O)c1ccc(COc2ccccc2)o1  10.5%
19. COC(=O)NCC(c1ccc2c(c1)OCO2)N1CCN(c2ccc(OC)cc2)CC1 (stereo not shown)  8.79%
20. Cc1onc(-c2ccccc2)c1C(=O)NNC(=O)c1ccccc1O  8.33%
21. COc1cc(CN(C)CCc2ccccn2)cc(OC)c1OC.O=C(O)C(=O)O  8.32%
22. NC(=O)c1oc2ccc(Cl)cc2c1N  8.2%
23. CCOc1ccc(S(=O)(=O)NCC(=O)NC2CCCCC2)cc1  7.89%
24. COc1ccc(-n2nc3c(c2NC(=O)c2c(F)cccc2Cl)CS(=O)C3)cc1 (stereo not shown)  7.81%
25. O=c1cc(NCCO)c2ccccc2o1  7.7%
26. Cc1ccc(S(=O)(=O)Nc2cc(=O)[nH]c(SCc3ccc(Cl)cc3)n2)cc1  7.67%
27. CCOc1ccc2c(c1)c(N=O)c(O)n2C  7.07%
28. CC1=C(C)CC2C(=O)N(c3cccc4ccccc34)C(=O)C2C1 (stereo not shown)  6.97%
29. O=C(O)c1ccc(-n2c(-c3ccc(Br)cc3)n[nH]c2=S)cc1  6.26%
30. COC(=O)c1cc(-c2cccc([N+](=O)[O-])c2)c2c(=O)[nH]c(=O)n(C)c2n1  6.09%
31. COc1ccc(Cl)cc1C(=O)Nc1ccncc1  5.55%
32. CS(=O)(=O)Nc1ccc(C2=NN(C(=O)c3ccccc3)C(c3cccs3)C2)cc1 (stereo not shown)  4.97%
33. CCCCCOC(=O)C1C(c2ccccc2)C(C(=O)O)C1c1ccccc1 (stereo not shown)  4.59%
34. COc1ccc(OC)c(/C=N/OC(=O)Nc2ccc(Cl)cc2)c1  4.19%
35. COc1ccc(CNC(=O)CCn2cccc2)cc1  3.99%
36. CCN(Cc1ccccc1)C(=O)COC(=O)c1cc(=O)[nH]c2ccccc12  3.62%
37. COCCCNC(=O)Cn1cc(/C=C(\C#N)C(=O)NC2CC2)c2ccccc21  2.96%
38. COC(=O)c1ccc(CN2C(=O)NC3(CCCc4ccccc43)C2=O)o1 (stereo not shown)  2.4%
39. COC(=O)c1ccc(N/C(=N/S(=O)(=O)c2ccccc2)c2ccccc2)cc1  2.32%
40. COc1ccc(/C=C/c2nc(N)nc(-c3ccccc3O)n2)cc1OC  2.24%
41. CCc1ccccc1S(=O)(=O)Cc1ccc(C(=O)NCc2cccs2)o1  -0.23%
42. COc1ccc(Cc2nnc(NC(=O)c3ccc(OC)c(OC)c3)s2)cc1OC  -0.781%
43. Cc1csc(Sc2ccc(S(=O)(=O)N3CCCC3)cn2)n1  -2.28%
44. COc1ccc(C(=O)N(CC2CCCO2)C(C(=O)NC2CCCC2)c2ccc(C)cc2)cc1OC (stereo not shown)  -7.31%
45. Cc1ccccc1N1CCN(c2ncnc3scc(-c4cccs4)c23)CC1  -11.8%
46. N#Cc1ccc(NC(=O)c2cc(=O)c3ccccc3o2)cc1  -12.9%
